# Assay results taken from the supplement of paper PMC8728848.
# The list shows a part of the results.
# Key:
# Assay in all cases: glycan array binding signal (z-score within array); higher = stronger binding
# Settings in all cases: glycan notation: IUPAC condensed, linker removed
# [1] = biological target: Neu5Ac(a2-3)Gal(b1-3)GalNAc
# Summary of the method: (§1)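 The binding signal is a Z-score computed within each array and averaged over linkers. Arrays of the same protein sequence at different concentrations or buffers were also averaged together. Data originate from 3228 arrays in the Consortium for Functional Glycomics database, kept only where the protein sequence was available.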
# [2] = biological target: Neu5Ac(a2-3)Gal(b1-3)GalNAc(b1-3)Gal(a1-4)Gal(b1-4)Glc
# Summary of the method: as §1
# [3] = biological target: Neu5Ac(a2-3)Gal(b1-3)GalNAc(b1-4)[Neu5Ac(a2-3)]Gal(b1-4)Glc
# Summary of the method: as §1
# [4] = biological target: Neu5Ac(a2-3)Gal(b1-3)GalNAc(b1-4)[Neu5Ac(a2-8)Neu5Ac(a2-3)]Gal(b1-4)Glc
# Summary of the method: as §1
# [5] = biological target: Neu5Ac(a2-3)Gal(b1-3)GalNAc6S
# Summary of the method: as §1
# [6] = biological target: Neu5Ac(a2-3)Gal(b1-3)GlcNAc
# Summary of the method: as §1
# [7] = biological target: Neu5Ac(a2-3)Gal(b1-3)GlcNAc(b1-2)Man
# Summary of the method: as §1
# [8] = biological target: Neu5Ac(a2-3)Gal(b1-3)GlcNAc(b1-2)Man(a1-3)[GlcNAc(b1-4)][Neu5Ac(a2-3)Gal(b1-3)GlcNAc(b1-2)Man(a1-6)]Man(b1-4)GlcNAc(b1-4)GlcNAc
# Summary of the method: as §1
# [9] = biological target: Neu5Ac(a2-3)Gal(b1-3)GlcNAc(b1-2)Man(a1-3)[Neu5Ac(a2-3)Gal(b1-3)GlcNAc(b1-2)Man(a1-6)]Man(b1-4)GlcNAc(b1-4)GlcNAc
# Summary of the method: as §1
# [10] = biological target: Neu5Ac(a2-3)Gal(b1-3)GlcNAc(b1-3)Gal(b1-3)GlcNAc
# Summary of the method: as §1
# [11] = biological target: Neu5Ac(a2-3)Gal(b1-3)GlcNAc(b1-3)Gal(b1-4)GlcNAc
# Summary of the method: as §1
# [12] = biological target: Neu5Ac(a2-3)Gal(b1-3)GlcNAc(b1-3)GalNAc
# Summary of the method: as §1
# [13] = biological target: Neu5Ac(a2-3)Gal(b1-3)GlcNAc(b1-4)Gal(b1-4)Glc
# Summary of the method: as §1
# [14] = biological target: Neu5Ac(a2-3)Gal(b1-3)GlcNAc(b1-6)GalNAc
# Summary of the method: as §1
# [15] = biological target: Neu5Ac(a2-3)Gal(b1-3)GlcNAc6S
# Summary of the method: as §1
# [16] = biological target: Neu5Ac(a2-3)Gal(b1-3)[Fuc(a1-4)]GlcNAc
# Summary of the method: as §1
# [17] = biological target: Neu5Ac(a2-3)Gal(b1-3)[Fuc(a1-4)]GlcNAc(b1-3)Gal(b1-3)[Fuc(a1-4)]GlcNAc
# Summary of the method: as §1
# [18] = biological target: Neu5Ac(a2-3)Gal(b1-3)[Fuc(a1-4)]GlcNAc(b1-3)Gal(b1-4)[Fuc(a1-3)]GlcNAc
# Summary of the method: as §1
# [19] = biological target: Neu5Ac(a2-3)Gal(b1-3)[GlcNAc(b1-6)]GalNAc
# Summary of the method: as §1
# [20] = biological target: Neu5Ac(a2-3)Gal(b1-3)[Neu5Ac(a2-6)]GalNAc
# Summary of the method: as §1
# [21] = biological target: Neu5Ac(a2-3)Gal(b1-3)[Neu5Ac(a2-6)]GlcNAc(b1-3)[Fuc(a1-3)[Gal(b1-4)]GlcNAc(b1-6)]Gal(b1-4)Glc
# Summary of the method: as §1
# [22] = biological target: Neu5Ac(a2-3)Gal(b1-3)]Neu5Ac(a2-3)Gal(b1-4)]GlcNAc
# Summary of the method: as §1
# Neu5Ac(a2-3)Gal(b1-4)Glc = biological target: Neu5Ac(a2-3)Gal(b1-4)Glc
# Summary of the method: as §1
# [23] = biological target: Neu5Ac(a2-3)Gal(b1-4)GlcNAc
# Summary of the method: as §1
# [24] = biological target: Neu5Ac(a2-3)Gal(b1-4)GlcNAc(b1-2)Man
# Summary of the method: as §1
# [25] = biological target: Neu5Ac(a2-3)Gal(b1-4)GlcNAc(b1-2)Man(a1-3)[GlcNAc(b1-4)][Neu5Ac(a2-3)Gal(b1-4)GlcNAc(b1-2)Man(a1-6)]Man(b1-4)GlcNAc(b1-4)GlcNAc
# Summary of the method: as §1
# [26] = biological target: Neu5Ac(a2-3)Gal(b1-4)GlcNAc(b1-2)Man(a1-3)[Neu5Ac(a2-3)Gal(b1-4)GlcNAc(b1-2)Man(a1-6)]Man(b1-4)GlcNAc(b1-4)GlcNAc
# Summary of the method: as §1
# [27] = biological target: Neu5Ac(a2-3)Gal(b1-4)GlcNAc(b1-2)Man(a1-3)[Neu5Ac(a2-3)Gal(b1-4)GlcNAc(b1-2)Man(a1-6)]Man(b1-4)GlcNAc(b1-4)[Fuc(a1-6)]GlcNAc
# Summary of the method: as §1
# [28] = biological target: Neu5Ac(a2-3)Gal(b1-4)GlcNAc(b1-2)Man(a1-3)[Neu5Ac(a2-6)Gal(b1-4)GlcNAc(b1-2)Man(a1-6)]Man(b1-4)GlcNAc(b1-4)GlcNAc
# Summary of the method: as §1
# [29] = biological target: Neu5Ac(a2-3)Gal(b1-4)GlcNAc(b1-2)[Neu5Ac(a2-3)Gal(b1-4)GlcNAc(b1-4)]Man(a1-3)[GlcNAc(b1-4)][Neu5Ac(a2-3)Gal(b1-4)GlcNAc(b1-2)[Neu5Ac(a2-3)Gal(b1-4)GlcNAc(b1-6)]Man(a1-6)]Man(b1-4)GlcNAc(b1-4)GlcNAc
# Summary of the method: as §1
# [30] = biological target: Neu5Ac(a2-3)Gal(b1-4)GlcNAc(b1-2)[Neu5Ac(a2-3)Gal(b1-4)GlcNAc(b1-4)]Man(a1-3)[GlcNAc(b1-4)][Neu5Ac(a2-3)Gal(b1-4)GlcNAc(b1-4)Man(a1-6)]Man(b1-4)GlcNAc(b1-4)GlcNAc
# Summary of the method: as §1
# [31] = biological target: Neu5Ac(a2-3)Gal(b1-4)GlcNAc(b1-2)[Neu5Ac(a2-3)Gal(b1-4)GlcNAc(b1-6)]Man(a1-6)[Neu5Ac(a2-3)Gal(b1-4)GlcNAc(b1-2)Man(a1-3)]Man(b1-4)GlcNAc(b1-4)GlcNAc
# Summary of the method: as §1
# [32] = biological target: Neu5Ac(a2-3)Gal(b1-4)GlcNAc(b1-2)[Neu5Ac(a2-3)Gal(b1-4)GlcNAc(b1-6)]Man(a1-6)[Neu5Ac(a2-3)Gal(b1-4)GlcNAc(b1-2)Man(a1-3)][GlcNAc(b1-4)]Man(b1-4)GlcNAc(b1-4)GlcNAc
# Summary of the method: as §1
# [33] = biological target: Neu5Ac(a2-3)Gal(b1-4)GlcNAc(b1-3)Gal
# Summary of the method: as §1
# [34] = biological target: Neu5Ac(a2-3)Gal(b1-4)GlcNAc(b1-3)Gal(b1-3)GlcNAc
# Summary of the method: as §1
# [35] = biological target: Neu5Ac(a2-3)Gal(b1-4)GlcNAc(b1-3)Gal(b1-4)GlcNAc
# Summary of the method: as §1
# [36] = biological target: Neu5Ac(a2-3)Gal(b1-4)GlcNAc(b1-3)Gal(b1-4)GlcNAc(b1-2)Man(a1-3)[Neu5Ac(a2-3)Gal(b1-4)GlcNAc(b1-3)Gal(b1-4)GlcNAc(b1-2)Man(a1-6)]Man(b1-4)GlcNAc(b1-4)GlcNAc
# Summary of the method: as §1
# [37] = biological target: Neu5Ac(a2-3)Gal(b1-4)GlcNAc(b1-3)Gal(b1-4)GlcNAc(b1-3)Gal(b1-4)GlcNAc
# Summary of the method: as §1
# [38] = biological target: Neu5Ac(a2-3)Gal(b1-4)GlcNAc(b1-3)Gal(b1-4)GlcNAc(b1-3)Gal(b1-4)GlcNAc(b1-2)Man(a1-3)[Neu5Ac(a2-3)Gal(b1-4)GlcNAc(b1-3)Gal(b1-4)GlcNAc(b1-3)Gal(b1-4)GlcNAc(b1-2)Man(a1-6)]GalNAc
# Summary of the method: as §1
# [39] = biological target: Neu5Ac(a2-3)Gal(b1-4)GlcNAc(b1-3)Gal(b1-4)GlcNAc(b1-3)GalNAc
# Summary of the method: as §1
# [40] = biological target: Neu5Ac(a2-3)Gal(b1-4)GlcNAc(b1-3)Gal(b1-4)GlcNAc(b1-3)[Neu5Ac(a2-3)Gal(b1-4)GlcNAc(b1-3)Gal(b1-4)GlcNAc(b1-6)]GalNAc
# Summary of the method: as §1
# [41] = biological target: Neu5Ac(a2-3)Gal(b1-4)GlcNAc(b1-3)Gal(b1-4)GlcNAc(b1-6)[Gal(b1-3)]GalNAc
# Summary of the method: as §1
# [42] = biological target: Neu5Ac(a2-3)Gal(b1-4)GlcNAc(b1-3)Gal(b1-4)[Fuc(a1-3)]GlcNAc
# Summary of the method: as §1
# [43] = biological target: Neu5Ac(a2-3)Gal(b1-4)GlcNAc(b1-3)GalNAc
# Summary of the method: as §1
# [44] = biological target: Neu5Ac(a2-3)Gal(b1-4)GlcNAc(b1-3)[Neu5Ac(a2-3)Gal(b1-4)GlcNAc(b1-6)]GalNAc
# Summary of the method: as §1
binder,measurement,setting,value
PX9961J-bvu-499-24-499 (Bacteroides vulgatus) (protein) LNTDPSTAVPSDDAIKNIDDAQVALNGIYRLASAHSYYGDNYLYYADCRGEDVQARINKGAGRRVSPYYFFDVTADDNFNITLVWNQPYKVIHQANSLIEKLDAGNAGNARPEEVARIKSEALAMRGLALFDLTRLFGMPYTLDNGASLGVPIEIQTTLEDHAPERNTVAQCYEQVLKDLNDALGGLTKEKHDAYMNYWSVKALLSRVYLYMNDNENALKCAEEVINDNGGIYRLFTHDEYPSVWGKDFNSESLFEFYFTMSEPSGGSGGEGAPMVYADNVKDWNNLILTKAYLDLLNEDPEDVRHVFPHLPENAVADTLPVAAKGQPKYLIKYPGKSGSVTDAVSTVNPQDNDLCILRLSEVYLNAAEAAFKIGNTEKALTYLNAIVTRANPAKSVTSADLSLERILKERRKELVGEGHAFFDYMRNGKSVDRSGGWHLTMPEDARVIAPSDPRVALPIPQTEIDANPNIVQNPR,glycan array binding signal (z-score),[1],0.251
same,glycan array binding signal (z-score),[2],0.775
same,glycan array binding signal (z-score),[3],0.61
same,glycan array binding signal (z-score),[4],0.353
same,glycan array binding signal (z-score),[5],-0.388
same,glycan array binding signal (z-score),[6],0.121
same,glycan array binding signal (z-score),[7],-0.134
same,glycan array binding signal (z-score),[8],-0.662
same,glycan array binding signal (z-score),[9],-0.442
same,glycan array binding signal (z-score),[10],-0.535
same,glycan array binding signal (z-score),[11],0.428
same,glycan array binding signal (z-score),[12],0.006
same,glycan array binding signal (z-score),[13],-0.617
same,glycan array binding signal (z-score),[14],-0.357
same,glycan array binding signal (z-score),[15],-0.785
same,glycan array binding signal (z-score),[16],0.031
same,glycan array binding signal (z-score),[17],0.457
same,glycan array binding signal (z-score),[18],-0.506
same,glycan array binding signal (z-score),[19],-0.805
same,glycan array binding signal (z-score),[20],-0.033
same,glycan array binding signal (z-score),[21],0.331
same,glycan array binding signal (z-score),[22],0.358
same,glycan array binding signal (z-score),Neu5Ac(a2-3)Gal(b1-4)Glc,0.041
same,glycan array binding signal (z-score),[23],0.036
same,glycan array binding signal (z-score),[24],0.768
same,glycan array binding signal (z-score),[25],-0.375
same,glycan array binding signal (z-score),[26],0.088
same,glycan array binding signal (z-score),[27],-0.485
same,glycan array binding signal (z-score),[28],0.277
same,glycan array binding signal (z-score),[29],-0.208
same,glycan array binding signal (z-score),[30],0.12
same,glycan array binding signal (z-score),[31],0.855
same,glycan array binding signal (z-score),[32],-0.416
same,glycan array binding signal (z-score),[33],-0.253
same,glycan array binding signal (z-score),[34],0.177
same,glycan array binding signal (z-score),[35],0.774
same,glycan array binding signal (z-score),[36],0.308
same,glycan array binding signal (z-score),[37],0.076
same,glycan array binding signal (z-score),[38],0.549
same,glycan array binding signal (z-score),[39],0.477
same,glycan array binding signal (z-score),[40],-0.391
same,glycan array binding signal (z-score),[41],-0.727
same,glycan array binding signal (z-score),[42],-0.587
same,glycan array binding signal (z-score),[43],-0.316
same,glycan array binding signal (z-score),[44],-0.509
